We go through one molecule from patent publication US20240141014A1 (SHATTUCK LABS, published 2024).

In experiment [1] the target is T1, PD-L1 protein (UniProt Q9NZQ7 partial chain, limits assumed).
T1 construct: also called recombinant PD-L1
Put plainly: BLI (Octet, ForteBio), biotinylated hPD-L1 loaded on the biosensor (Loading Sample ID: hPDL1-biotin; Acro-Biotin); Full R^2 0.9715.

Experiment [2] has as its target T1, PD-L1 protein. The experiment can be described thus: BLI (Octet, ForteBio), biotinylated hPD-L1 loaded on the biosensor (Loading Sample ID: hPDL1-biotin; Acro-Biotin); kdis(1/s); Full R^2 0.9715. A general note: BLI is a label-free optical method that tracks binding on a fibre tip over time.

T1 sequence (Q9NZQ7 19-238 limits assumed): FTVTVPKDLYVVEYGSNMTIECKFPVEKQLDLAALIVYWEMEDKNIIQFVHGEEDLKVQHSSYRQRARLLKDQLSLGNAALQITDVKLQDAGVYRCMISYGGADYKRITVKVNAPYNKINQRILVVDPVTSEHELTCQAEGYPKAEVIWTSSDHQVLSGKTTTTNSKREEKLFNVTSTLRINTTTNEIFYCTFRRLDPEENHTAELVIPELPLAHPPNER

B1: PD-1(S87C)-Fc fusion protein (Fc fusion)
chain: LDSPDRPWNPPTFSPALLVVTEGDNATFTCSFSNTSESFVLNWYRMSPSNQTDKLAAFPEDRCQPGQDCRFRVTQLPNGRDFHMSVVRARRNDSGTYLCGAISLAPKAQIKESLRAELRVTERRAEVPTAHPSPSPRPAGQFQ
notes: also called G3; not shown: Fc domain and any joining linker of the tested construct are not specified
B1: in experiment [1], the Kd is 90.4 nM and the kon is 124000 M⁻¹ s⁻¹. Further, the koff in experiment [2] was 0.0112 s⁻¹.

Usually Kd stands for the free concentration of one partner at which half of the binding sites on the other are occupied at equilibrium, for simple one-to-one binding. Read a low Kd as a tighter complex. In general, kon refers to a measure of how fast the partners come together. Higher therefore signals fast association. A word on the koff: it is the rate constant with which the complex falls apart.
